Assay results taken from PubChem BioAssay AID624255 (Broad Institute, 2012).
In all, about 77,000 compounds went through this assay and about 4,600 (6%) were called active. Inconclusive means that the source gave no clear call. Such entries were picked first, then a sample of the others.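 The calls were made as follows: active = mean inhibition above about 93%, with at least 55% of replicates each passing it (limit read from the data, passing the limit was not always enough); inconclusive = only one of those two conditions holds; inactive = neither condition holds.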

Assay: T. cruzi intracellular proliferation inhibitors, primary screen, cell-based, beta-gal Tulahuen parasites, NIH3T3 host, luminescence (AID 624255)
Conditions: T. cruzi beta-gal in NIH3T3, GalScreen luminescence, 90 h; at 8.34 µM; stronger effect = higher value

inhibition, active:
C[C@H](CO)N1C[C@H](C)[C@H](CN(C)Cc2cccc(F)c2)Oc2cc(C#Cc3ccccn3)ccc2S1(=O)=O 124%, COc1ccc(C#Cc2ccc3c(c2)[C@H]2[C@H](CCN2C(=O)c2ccncc2)[C@H](CO)N3)cc1 101%, CCCNC(=O)N1[C@H](CO)[C@H](c2ccccc2)[C@@H]1CNC(=O)c1cccc(F)c1 97.9%, C[C@@H]1CN([C@@H](C)CO)S(=O)(=O)c2ccc(-c3ccncc3)cc2O[C@H]1CN(C)C 98.2%, O=C(c1ccc(F)cc1)N1CCCCN2[C@H](CO)[C@H](c3ccc(-c4ccc(F)cc4)cc3)[C@@H]2C1 105%

inhibition, inconclusive:
Cc1ccc(S(=O)(=O)N(C)C[C@H]2OCCCC[C@H](C)Oc3ccc(NS(=O)(=O)c4ccc(Cl)cc4)cc3C(=O)N([C@@H](C)CO)C[C@H]2C)cc1 112%, C[C@H](CO)N1C[C@H](C)[C@@H](CN(C)Cc2ccccc2F)Oc2cc(C3=CCCC3)ccc2S1(=O)=O 95.7%, C[C@@H]1CCCCO[C@H](CN(C)C(=O)Nc2ccc(C(F)(F)F)cc2)[C@H](C)CN([C@H](C)CO)C(=O)c2cc(NC(=O)Cc3ccccc3)ccc2O1 125%, C[C@@H]1CN([C@@H](C)CO)S(=O)(=O)c2ccc(-c3ccccc3)cc2O[C@H]1CN(C)C(=O)C1CC1 121%, COc1ccc(S(=O)(=O)Nc2ccc3c(c2)C(=O)N([C@@H](C)CO)C[C@H](C)[C@H](CN(C)Cc2ccc(C(F)(F)F)cc2)O3)cc1 95.9%, Cc1ccccc1-c1ccc([C@H]2[C@@H](CO)N3CCCCN(C(=O)CN4CCOCC4)C[C@@H]23)cc1 96.1%, O=C(C[C@@H]1C[C@H]2c3cc(NC(=O)Nc4ccc(C(F)(F)F)cc4)ccc3O[C@H]2[C@@H](CO)O1)NCc1ccc(Cl)cc1 99.3%, C/C=C/c1ccc2c(c1)O[C@H](CN(C)C(=O)Nc1ccc(C(F)(F)F)cc1)[C@H](C)CN([C@@H](C)CO)S2(=O)=O 96.7%, C[C@H]1CN([C@@H](C)CO)C(=O)c2cccc(NC(=O)Nc3ccc(F)cc3)c2O[C@@H]1CN(C)Cc1ccc(Oc2ccccc2)cc1 122%, COc1ccc(NC(=O)Nc2ccc3c(c2)C(=O)N([C@@H](C)CO)C[C@@H](C)[C@H](CN(C)S(=O)(=O)c2ccc(F)cc2)OCCCC[C@@H](C)O3)cc1 105%, CS(=O)(=O)N1[C@H](C#N)[C@H](c2ccc(C#Cc3cccc(F)c3)cc2)[C@H]1CO 95.2%, Cn1cnc(S(=O)(=O)N2CC[C@@H]3[C@H]2c2cc(-c4cccc(F)c4)ccc2N[C@@H]3CO)c1 96.7%, C[C@H](CO)N1C[C@H](C)[C@H](CN(C)S(=O)(=O)c2ccc(Cl)cc2)Oc2ccc(NS(=O)(=O)c3ccc(F)cc3)cc2C1=O 90%, COc1ccc(S(=O)(=O)N(C)C[C@H]2OCCCC[C@H](C)Oc3ccc(NS(=O)(=O)c4ccc(C)cc4)cc3C(=O)N([C@@H](C)CO)C[C@@H]2C)cc1 113%, CO[C@H]1CN(C)C(=O)c2cc(NC(=O)Nc3cc(F)ccc3F)ccc2OC[C@H](C)NC[C@@H]1C 95.2%, Cc1ccc(S(=O)(=O)N[C@@H]2CC[C@@H](CCNC(=O)Cc3ccccn3)O[C@H]2CO)cc1 95.6%, C[C@@H]1CN([C@@H](C)CO)C(=O)c2cc(-c3ccccc3F)cnc2O[C@H]1CN(C)Cc1ccccc1F 103%, COc1ccc(NC(=O)Nc2ccc3c(c2)C(=O)N([C@@H](C)CO)C[C@H](C)[C@@H](CN(C)S(=O)(=O)c2ccc(OC)cc2)OCCCC[C@H](C)O3)cc1 96.4%, CC(C)CC#Cc1cnc2c(c1)C(=O)N([C@H](C)CO)C[C@@H](C)[C@H](CN(C)Cc1ccccc1F)O2 83.5%

inhibition, inactive:
CN1C(=O)c2cc(NC(=O)c3ccc(F)c(F)c3)ccc2OC[C@@H]2O[C@H](CC(=O)O)CC[C@H]21 7.85%, C[C@H]1CN([C@@H](C)CO)C(=O)Cc2cc(NC(=O)Nc3ccc4c(c3)OCO4)ccc2O[C@@H]1CN(C)S(=O)(=O)c1ccccc1 1.18%, C[C@@H]1CCCCO[C@H](CN(C)CC2CCCCC2)[C@H](C)CN([C@H](C)CO)C(=O)c2cc(NC(=O)NC3CCCCC3)ccc2O1 37.8%, O=C(N[C@H]1C=C[C@@H](CC(=O)N2CCCCC2)O[C@@H]1CO)c1cccc(F)c1 -44.5%, COc1ccc(NC(=O)N(C)C[C@H]2OCCCC[C@@H](C)Oc3ccc(N(C)C)cc3C(=O)N([C@H](C)CO)C[C@H]2C)cc1 26.5%, CC(=O)NC[C@H]1[C@H](c2ccccc2)[C@H](CO)N1C(=O)Cc1ccncc1 58.6%, O=C(C[C@@H]1CC[C@@H]2[C@H](COC[C@@H](O)CN2Cc2ccc(Oc3ccccc3)cc2)O1)N1CCOCC1 12.1%, COc1ccc(CN2C[C@@H](C)[C@@H](OC)CN(C)C(=O)c3cc(NC(=O)C4CC4)ccc3OC[C@H]2C)cc1 -49.8%, Cc1noc(C)c1NC(=O)N(C)C[C@@H]1OCCCC[C@H](C)Oc2ccc(NC(=O)Nc3ccc(C(F)(F)F)cc3)cc2C(=O)N([C@@H](C)CO)C[C@@H]1C 70.8%, CC(C)NC(=O)N(C)C[C@@H]1Oc2c(NC(=O)c3nc4ccccc4s3)cccc2C(=O)N([C@H](C)CO)C[C@@H]1C 28.4%, C[C@H]1CN([C@@H](C)CO)C(=O)c2cc(NS(=O)(=O)c3ccc(F)cc3)ccc2O[C@H]1CN(C)C(=O)Nc1ccc2c(c1)OCO2 -11.3%, Cc1noc(C)c1NC(=O)N(C)C[C@H]1Oc2c(NC(=O)Nc3ccc(F)cc3)cccc2C(=O)N([C@H](C)CO)C[C@H]1C 16.6%
